{"source": "paper PMC12136788", "binders": {"B1": {"name": "chr1:113685846:113685948:+|3pUTR|ENSG00000081026|unk|total|mutant (ssRNA)", "RNA": "GGGAGUUCUACAGUCCGACGAUCUAUAUACACUUGAGGUUCUGAUCCGAGAAAGAUCUGUAAAUUGCUCAUUAUUUUUUAUACCGAUAUUUAAAAAAAACAGUUUAUGGCCUGCAUUUCUUUUACUGUCACAUUGGUUUAAUGCAACAGAGGAUUGAGCAUCA"}, "B2": {"name": "ENSG00000136451:be:win_3301|3pUTR|ENSG00000136451|bound_else_gene|NA|bound_elsewhere_windowed (ssRNA)", "RNA": "GGGAGUUCUACAGUCCGACGAUCAUUGUACAACUUUUGUAUAUAUAAAAGCUUAGGAACUUUCUGUUUAGCAGGAAGGCAACACAUUCCUACACUUUUAAUGUAUAUGUUUGUUAUAAUGUCCAUGUAAACAUGCCCUAUGUUCAACAGAGGAUUGAGCAUCA"}, "B3": {"name": "chr1:55067125:55067226:-|3pUTR|ENSG00000162402|msi1|FALSE|unique (ssRNA)", "RNA": "GGGAGUUCUACAGUCCGACGAUCUAUCAUCGCUGGCGACUGCACUCUCAGGAGCCCAAAAUCAGGAGUGAAAUUGCCACUUCUAGUCCCCUUAUUUCCUAUGGAAACAACGCCUUCCGCACCCCUAGCACCUGCCGUCCUCACCAACAGAGGAUUGAGCAUCA"}, "B4": {"name": "chr3:15254852:15254953:-|3pUTR|ENSG00000131370|msi1|FALSE|unique (ssRNA)", "RNA": "GGGAGUUCUACAGUCCGACGAUCAAACUGUUAAUUCUGUCACAGCCUGUAUAUUUUAGUCAUUUGUAAAUCUCUUCAUACAAUAGUGACUUCUUUUUUGACUGAUACAGUAUCUUAAUUACAAGGUUAUUUUGUACUUGUCUUCAACAGAGGAUUGAGCAUCA"}, "B5": {"name": "chr16:61647241:61654101:-|three_prime_utr|ENSG00000150394|control|control|control (ssRNA)", "RNA": "GGGAGUUCUACAGUCCGACGAUCAAAGAAACUUGACAGUGGAUUAUAAAUAAAUCACUGGAACUGAGCAUUCUGUAAUAUUCUAGGGUCACUCCCCUUAGAUACAACCAAUGUGGCUAUUUGUUUUAGAGGCAAGUUUAGCACCAACAGAGGAUUGAGCAUCA"}, "B6": {"name": "chr20:59938049:59938150:-|3pUTR|ENSG00000132825|unk|total|mutant (ssRNA)", "RNA": "GGGAGUUCUACAGUCCGACGAUCAAGUUUGAAACUAAGCAUUUUAAGAAGUCUUGCCUCAGUUAUUUCAGUUUUCAGGUGACCCGAGAAUUUCAGGCAACAGUGCCCUUUGCAAUUACCUUUUUGAUGAUUAAGGUGACUAUUCAACAGAGGAUUGAGCAUCA"}, "B7": {"name": "ENSG00000198589:be:win_8901|3pUTR|ENSG00000198589|bound_else_gene|NA|bound_elsewhere_windowed (ssRNA)", "RNA": "GGGAGUUCUACAGUCCGACGAUCUGAGAAAUAGGAUUUUCACAGUGGGGAAGUGGGUUACAAUAUUGGAAUAGGAAAAUUUGAUGCUGUAAUUUGGGUCCUGUAUUUUUCCAAACAACUGUGCUUCUUCAGCACUAAUAUUUCCAACAGAGGAUUGAGCAUCA"}, "B8": {"name": "chr6:111694403:111694505:-|CDS|ENSG00000010810|unk|total|mutant (ssRNA)", "RNA": "GGGAGUUCUACAGUCCGACGAUCAAUGGCUUACAUCGAGCGCAUGAAUUAUAUCCACCGAGAUCUGCGAUCAGCAAACAUUCCCGUGGGGAAUGGACUCAUAUGCAAGAUUGCUGACUUCGGAUUGGCCCGAUUGACCGAAGACAACAGAGGAUUGAGCAUCA"}, "B9": {"name": "chr11:43494716:43494817:+|3pUTR|ENSG00000052841|unk|FALSE|unique (ssRNA)", "RNA": "GGGAGUUCUACAGUCCGACGAUCGUUACCCAUCUUGGAAUAAGUUGUGAAUGUCAGCUCCCUCUCUCUGAGGCCUCCAGACUUAGCUCCUCAGGAGGGUAAUGAGCCAAGGUUGAGUGUUUCCAUACAAUGCUUUUACCUUUGCAACAGAGGAUUGAGCAUCA"}, "B10": {"name": "chr19:3536616:3536717:+|3pUTR|ENSG00000105325|msi1|FALSE|unique (ssRNA)", "RNA": "GGGAGUUCUACAGUCCGACGAUCACCGCCGCAGGGCCAGGCGGACGGCGUGAGGUUUGUGUUGGGGCUGGUUCUGCCCAUGCUAGGGGGUGGGGGAGCUCCCAGGACAGACCAGCCUUGUUUCUCAUGUAAUGCAGUGACGCUCAACAGAGGAUUGAGCAUCA"}, "B11": {"name": "chr22:36489384:36489485:-|3pUTR|ENSG00000100350|msi1|FALSE|unique (ssRNA)", "RNA": "GGGAGUUCUACAGUCCGACGAUCGUGUCACUUGCCACACACUGCCUCAACCUCCCCGCCCCAUUUUCAGCAGGGUUUGGGCUUAGCUACAGAGCCCAAGAGGGUCAGCCCUGCUUAUCAUCAUAGGCCCAGCAGGCUGAUCUCCAACAGAGGAUUGAGCAUCA"}, "B12": {"name": "chr5:56893553:56893673:+|CDS|ENSG00000095015|unk|FALSE|unique (ssRNA)", "RNA": "GGGAGUUCUACAGUCCGACGAUCUGCUCCAUCGAUCCCUUCACAUUUGUCUCCUGGUUUACGAGAUGUGGCUCUUCGUUGUUUAGAACUUCAACCUCAGGACAGACCUCCAUCAAGAGAGCUACUGAAGCAUCCAGUCUUUCGCAACAGAGGAUUGAGCAUCA"}, "B13": {"name": "chr9:128108756:128108857:+|3pUTR|ENSG00000148339|msi1|FALSE|unique (ssRNA)", "RNA": "GGGAGUUCUACAGUCCGACGAUCAAGGCAGCAGCCCUGGCUCCUUUCCUUUGGCAGGUUGGGGAAGGGCUUGCCCCCAGCCUUAGGAUUUCAGGGUUUGACUGGGGGCGUGGAGAGAGAGGGAGGAACCUCAAUAACCUUGAACAACAGAGGAUUGAGCAUCA"}, "B14": {"name": "chr12:74541195:74541296:+|3pUTR|ENSG00000253719|msi1|FALSE|bound_elsewhere (ssRNA)", "RNA": "GGGAGUUCUACAGUCCGACGAUCUGGGGGAAGGGGGGGGUUCUUUAAAAUUUCUGUGGUUUGUGGCUUUUUCUUCCAUACAUUAGUUCCCACCAUCGCAUGCCCAGGGACCACUGCCUGGCAUUAUCGCAUGCUGGGAUCAUCCAACAGAGGAUUGAGCAUCA"}}, "note": "This is one part of the list."}
{"biological_target": "T1, UNK ZnF1-6 (called full-length) (human, UniProt Q9C0B0 30-357)", "T1 sequence": "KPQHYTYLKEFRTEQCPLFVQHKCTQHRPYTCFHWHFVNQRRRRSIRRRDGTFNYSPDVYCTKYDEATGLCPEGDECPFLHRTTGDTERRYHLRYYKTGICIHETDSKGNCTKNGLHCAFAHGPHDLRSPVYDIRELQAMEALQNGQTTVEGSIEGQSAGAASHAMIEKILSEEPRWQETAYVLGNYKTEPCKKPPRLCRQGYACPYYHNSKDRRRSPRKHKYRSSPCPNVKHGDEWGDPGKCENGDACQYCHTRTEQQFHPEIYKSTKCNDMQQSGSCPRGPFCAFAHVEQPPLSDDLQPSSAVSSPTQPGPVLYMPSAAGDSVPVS", "test": "nsRBNS (natural sequence RNA bind-n-seq); RBNS binding buffer (assumed for nsRBNS): 25 mM Tris pH 7.5, 150 mM KCl, 3 mM MgCl2, 0.01% Triton X-100, 500 ug/ml BSA, 20 U/ml SUPERase-In, 4 C; UNK is unkempt and MSI1 is Musashi-1; names of the RNAs are library labels; protein concentration not given here; high values mean tight binding", "units": {"binding signal": "enrichment R"}}
{"binder": "B1", "binding signal": 0.88}
{"binder": "B2", "binding signal": 0.309}
{"binder": "B3", "binding signal": 1.03}
{"binder": "B4", "binding signal": 0.54}
{"binder": "B5", "binding signal": 1.08}
{"binder": "B6", "binding signal": 1.02}
{"binder": "B7", "binding signal": 0.838}
{"binder": "B8", "binding signal": 0.354}
{"binder": "B9", "binding signal": 0.543}
{"binder": "B10", "binding signal": 0.944}
{"binder": "B11", "binding signal": 0.851}
{"binder": "B12", "binding signal": 0.526}
{"binder": "B13", "binding signal": 0.973}
{"binder": "B14", "binding signal": 1.24}
